Source: article PMC11414716
Results are given in words; binding and its absence hold for the method and conditions named. For some of these results: In cells and extracts the contact can be indirect. For some of these results: Sequences can lack the tags named with a protein. Some entries that bind do so weakly or less than the wild type.

T1: PotABC E173Q complex (E. coli K12) (UniProt P69874+P0AFK4+P0AFK6)
T1 sequence 1: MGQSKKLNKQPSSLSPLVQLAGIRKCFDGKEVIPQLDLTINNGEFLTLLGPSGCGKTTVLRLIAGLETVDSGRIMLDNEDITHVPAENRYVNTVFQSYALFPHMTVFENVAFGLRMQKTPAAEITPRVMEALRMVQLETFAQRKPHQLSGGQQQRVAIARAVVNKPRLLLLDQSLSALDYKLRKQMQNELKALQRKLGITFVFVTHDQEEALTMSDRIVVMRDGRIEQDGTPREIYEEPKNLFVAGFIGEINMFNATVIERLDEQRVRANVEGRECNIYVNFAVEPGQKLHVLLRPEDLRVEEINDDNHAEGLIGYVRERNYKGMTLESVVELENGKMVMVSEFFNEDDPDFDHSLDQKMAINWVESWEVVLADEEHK
T1 sequence 2: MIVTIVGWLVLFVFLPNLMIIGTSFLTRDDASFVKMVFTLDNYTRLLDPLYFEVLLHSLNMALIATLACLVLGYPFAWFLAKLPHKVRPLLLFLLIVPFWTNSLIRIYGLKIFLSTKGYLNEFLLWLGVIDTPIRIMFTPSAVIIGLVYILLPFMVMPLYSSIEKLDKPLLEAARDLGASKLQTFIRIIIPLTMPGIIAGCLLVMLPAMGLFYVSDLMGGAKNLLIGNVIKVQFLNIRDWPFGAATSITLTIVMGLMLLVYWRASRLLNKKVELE
T1 sequence 3: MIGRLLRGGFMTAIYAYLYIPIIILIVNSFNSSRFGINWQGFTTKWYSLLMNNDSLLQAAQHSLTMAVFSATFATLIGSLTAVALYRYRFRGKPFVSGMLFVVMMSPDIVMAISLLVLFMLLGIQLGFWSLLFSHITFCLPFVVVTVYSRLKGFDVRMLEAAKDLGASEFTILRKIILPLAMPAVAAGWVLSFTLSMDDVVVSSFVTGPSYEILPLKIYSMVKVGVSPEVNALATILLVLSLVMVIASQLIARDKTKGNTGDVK

T2: PotB (E. coli K12) (UniProt P0AFK4)
T2 sequence: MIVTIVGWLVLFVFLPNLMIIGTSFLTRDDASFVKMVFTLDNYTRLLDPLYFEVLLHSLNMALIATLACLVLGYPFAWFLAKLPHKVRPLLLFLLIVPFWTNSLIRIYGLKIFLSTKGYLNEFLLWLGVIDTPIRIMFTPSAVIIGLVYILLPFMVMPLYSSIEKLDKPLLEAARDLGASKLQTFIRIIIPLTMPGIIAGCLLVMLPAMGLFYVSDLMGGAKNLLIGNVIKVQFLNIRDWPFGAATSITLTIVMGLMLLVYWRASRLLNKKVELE

T3: PotC (E. coli K12) (UniProt P0AFK6)
T3 sequence: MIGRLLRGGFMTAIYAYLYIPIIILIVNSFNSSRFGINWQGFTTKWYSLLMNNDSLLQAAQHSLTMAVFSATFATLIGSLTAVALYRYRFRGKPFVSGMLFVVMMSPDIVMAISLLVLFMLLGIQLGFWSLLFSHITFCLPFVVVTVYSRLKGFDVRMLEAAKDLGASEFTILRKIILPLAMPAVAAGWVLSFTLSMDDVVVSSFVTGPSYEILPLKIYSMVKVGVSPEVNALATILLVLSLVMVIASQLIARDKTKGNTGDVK

T4: PotD (wild type), spermidine-binding protein (E. coli K12) (UniProt P0AFK9)
T4 sequence: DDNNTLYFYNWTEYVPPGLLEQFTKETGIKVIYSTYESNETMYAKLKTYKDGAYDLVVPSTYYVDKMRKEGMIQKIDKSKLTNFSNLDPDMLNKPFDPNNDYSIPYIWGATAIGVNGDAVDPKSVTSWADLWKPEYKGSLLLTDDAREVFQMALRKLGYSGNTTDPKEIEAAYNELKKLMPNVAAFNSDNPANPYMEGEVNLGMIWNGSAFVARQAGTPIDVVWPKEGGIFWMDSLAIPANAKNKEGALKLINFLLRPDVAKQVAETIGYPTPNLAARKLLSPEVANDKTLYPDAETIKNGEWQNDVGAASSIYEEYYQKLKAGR


What was measured:
[1] = biological target: T1, PotABC E173Q complex (E. coli K12); assay: SEC; PotABC E173Q incubated with PotD with 2 mM ATP, Mg2+ and Spd at 4°C for 1 hour; Superose 6 10/30 in 20 mM tris-HCl pH 7.5, 150 mM NaCl, 0.001% LMNG; peak fractions checked by SDS-PAGE; both purified
[2] = biological target: T1, PotABC E173Q complex (E. coli K12); assay: cryo-EM structure; PotD-PotABC E173Q complex formed with Spd, ATP and Mg2+, in LMNG; Spd-bound pretranslocation state (3.1 Å) and ATP-bound translocation intermediate state (3 Å; dataset 2 with 3 mM Fos-Choline-8); both purified
PotB (E. coli K12) [3] = biological target: T2, PotB (E. coli K12); assay: as above
PotC (E. coli K12) [4] = biological target: T3, PotC (E. coli K12); assay: as above
PotB (E. coli K12) [5] = biological target: T2, PotB (E. coli K12); assay: cryo-EM structure; PotABC E173Q complex in detergent (LMNG), incubated with ATP, Mg2+ and Spd; apo and Spd-bound maps at 3.1 Å; both purified
PotC (E. coli K12) [6] = biological target: T3, PotC (E. coli K12); assay: as above
PotC (E. coli K12) [7] = biological target: T3, PotC (E. coli K12); assay: cryo-EM structure; wild-type PotABC complex reconstituted into MSP1E3D1/asolectin nanodiscs, with ATP, Mg2+ and Spd; map at 3.5 Å; both purified
PotB (E. coli K12) [8] = biological target: T2, PotB (E. coli K12); assay: as above
[9] = biological target: T4, PotD (wild type), spermidine-binding protein (E. coli K12); assay: pull-down; entire potABCD operon expressed in E. coli with the hexahistidine tag on PotD; nickel-NTA affinity purification from the cleared lysate

Row | Binder | binding [1] | binding (PotC (E. coli K12) [4]) | binding (PotC (E. coli K12) [6]) | binding (PotC (E. coli K12) [7]) | further results
1 | PotD (wild type), spermidine-binding protein (protein, UniProt P0AFK9 24-348) DDNNTLYFYNWTEYVPPGLLEQFTKETGIKVIYSTYESNETMYAKLKTYKDGAYDLVVPSTYYVDKMRKEGMIQKIDKSKLTNFSNLDPDMLNKPFDPNNDYSIPYIWGATAIGVNGDAVDPKSVTSWADLWKPEYKGSLLLTDDAREVFQMALRKLGYSGNTTDPKEIEAAYNELKKLMPNVAAFNSDNPANPYMEGEVNLGMIWNGSAFVARQAGTPIDVVWPKEGGIFWMDSLAIPANAKNKEGALKLINFLLRPDVAKQVAETIGYPTPNLAARKLLSPEVANDKTLYPDAETIKNGEWQNDVGAASSIYEEYYQKLKAGR | binds |  |  |  | binding [2]: binds
2 | PotA E173Q (protein, UniProt P69874 1-378) MGQSKKLNKQPSSLSPLVQLAGIRKCFDGKEVIPQLDLTINNGEFLTLLGPSGCGKTTVLRLIAGLETVDSGRIMLDNEDITHVPAENRYVNTVFQSYALFPHMTVFENVAFGLRMQKTPAAEITPRVMEALRMVQLETFAQRKPHQLSGGQQQRVAIARAVVNKPRLLLLDQSLSALDYKLRKQMQNELKALQRKLGITFVFVTHDQEEALTMSDRIVVMRDGRIEQDGTPREIYEEPKNLFVAGFIGEINMFNATVIERLDEQRVRANVEGRECNIYVNFAVEPGQKLHVLLRPEDLRVEEINDDNHAEGLIGYVRERNYKGMTLESVVELENGKMVMVSEFFNEDDPDFDHSLDQKMAINWVESWEVVLADEEHK |  | binds | binds |  | binding (PotB (E. coli K12) [3]): binds; binding (PotB (E. coli K12) [5]): binds
3 | PotB (protein, UniProt P0AFK4 1-275) MIVTIVGWLVLFVFLPNLMIIGTSFLTRDDASFVKMVFTLDNYTRLLDPLYFEVLLHSLNMALIATLACLVLGYPFAWFLAKLPHKVRPLLLFLLIVPFWTNSLIRIYGLKIFLSTKGYLNEFLLWLGVIDTPIRIMFTPSAVIIGLVYILLPFMVMPLYSSIEKLDKPLLEAARDLGASKLQTFIRIIIPLTMPGIIAGCLLVMLPAMGLFYVSDLMGGAKNLLIGNVIKVQFLNIRDWPFGAATSITLTIVMGLMLLVYWRASRLLNKKVELE |  | binds | binds | binds | 
4 | PotA (wild type) (protein, UniProt P69874 1-378) MGQSKKLNKQPSSLSPLVQLAGIRKCFDGKEVIPQLDLTINNGEFLTLLGPSGCGKTTVLRLIAGLETVDSGRIMLDNEDITHVPAENRYVNTVFQSYALFPHMTVFENVAFGLRMQKTPAAEITPRVMEALRMVQLETFAQRKPHQLSGGQQQRVAIARAVVNKPRLLLLDESLSALDYKLRKQMQNELKALQRKLGITFVFVTHDQEEALTMSDRIVVMRDGRIEQDGTPREIYEEPKNLFVAGFIGEINMFNATVIERLDEQRVRANVEGRECNIYVNFAVEPGQKLHVLLRPEDLRVEEINDDNHAEGLIGYVRERNYKGMTLESVVELENGKMVMVSEFFNEDDPDFDHSLDQKMAINWVESWEVVLADEEHK |  |  |  | binds | binding (PotB (E. coli K12) [8]): binds
5 | PotD E220A/G221A/E222A triple mutant (protein, UniProt P0AFK9 24-348) DDNNTLYFYNWTEYVPPGLLEQFTKETGIKVIYSTYESNETMYAKLKTYKDGAYDLVVPSTYYVDKMRKEGMIQKIDKSKLTNFSNLDPDMLNKPFDPNNDYSIPYIWGATAIGVNGDAVDPKSVTSWADLWKPEYKGSLLLTDDAREVFQMALRKLGYSGNTTDPKEIEAAYNELKKLMPNVAAFNSDNPANPYMAAAVNLGMIWNGSAFVARQAGTPIDVVWPKEGGIFWMDSLAIPANAKNKEGALKLINFLLRPDVAKQVAETIGYPTPNLAARKLLSPEVANDKTLYPDAETIKNGEWQNDVGAASSIYEEYYQKLKAGR | binds weakly |  |  |  | 
6 | PotABC (wild type), co-expressed from the entire potABCD operon with the tag on PotD (complex, UniProt P69874 1-378; P0AFK4 1-275; P0AFK6 1-264) chain 1: MGQSKKLNKQPSSLSPLVQLAGIRKCFDGKEVIPQLDLTINNGEFLTLLGPSGCGKTTVLRLIAGLETVDSGRIMLDNEDITHVPAENRYVNTVFQSYALFPHMTVFENVAFGLRMQKTPAAEITPRVMEALRMVQLETFAQRKPHQLSGGQQQRVAIARAVVNKPRLLLLDESLSALDYKLRKQMQNELKALQRKLGITFVFVTHDQEEALTMSDRIVVMRDGRIEQDGTPREIYEEPKNLFVAGFIGEINMFNATVIERLDEQRVRANVEGRECNIYVNFAVEPGQKLHVLLRPEDLRVEEINDDNHAEGLIGYVRERNYKGMTLESVVELENGKMVMVSEFFNEDDPDFDHSLDQKMAINWVESWEVVLADEEHK chain 2: MIVTIVGWLVLFVFLPNLMIIGTSFLTRDDASFVKMVFTLDNYTRLLDPLYFEVLLHSLNMALIATLACLVLGYPFAWFLAKLPHKVRPLLLFLLIVPFWTNSLIRIYGLKIFLSTKGYLNEFLLWLGVIDTPIRIMFTPSAVIIGLVYILLPFMVMPLYSSIEKLDKPLLEAARDLGASKLQTFIRIIIPLTMPGIIAGCLLVMLPAMGLFYVSDLMGGAKNLLIGNVIKVQFLNIRDWPFGAATSITLTIVMGLMLLVYWRASRLLNKKVELE chain 3: MIGRLLRGGFMTAIYAYLYIPIIILIVNSFNSSRFGINWQGFTTKWYSLLMNNDSLLQAAQHSLTMAVFSATFATLIGSLTAVALYRYRFRGKPFVSGMLFVVMMSPDIVMAISLLVLFMLLGIQLGFWSLLFSHITFCLPFVVVTVYSRLKGFDVRMLEAAKDLGASEFTILRKIILPLAMPAVAAGWVLSFTLSMDDVVVSSFVTGPSYEILPLKIYSMVKVGVSPEVNALATILLVLSLVMVIASQLIARDKTKGNTGDVK |  |  |  |  | binding [9]: no binding
